Measured values published in the supplement of paper PMC3334620.
Over roughly 33,000 sequences, “E-score (-0.5 to 0.5)” has its median near -0.056; the highest 2% begin near 0.38. This is one part of the list.

target: Stb4 (UniProt P50104); assay: PBM E-score (8-mer binding enrichment) (E-score (-0.5 to 0.5)); higher = stronger / more preferred TF binding; most listed sequences are background and not binding sites; conditions: protein concentration: 200 nM; construct: GST-DNA-binding domain
Procedure, shortened: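 E-scores (a modified Wilcoxon-Mann-Whitney statistic) were assigned by the Universal PBM Analysis Suite to every ungapped eight-base word pooled with its reverse complement. The input came from universal all-10-mer Agilent arrays made double-stranded by primer extension and probed with GST-tagged yeast transcription factors at about 100-200 nM. Fluorescent anti-GST detected bound protein, and masliner normalised the scans.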

Row | Sequence | PBM E-score
1 | AGACATCG | -0.0825
2 | ATCCTGAA | 0.0113
3 | ATGCCAAA | -0.302
4 | CGATTACA | -0.0274
5 | CACAGCAA | -0.0864
6 | ACTGCTAT | -0.154
7 | GTCCCCGA | 0.288
8 | CGACTCAA | 0.167
9 | CGACGTAA | 0.16
10 | ACCGGTAT | 0.0767
11 | CGTCGCGA | 0.0945
12 | ACCTGGCT | -0.231
13 | AACATGAC | -0.101
14 | TCGGCTCA | 0.323
15 | GCCATGGA | -0.273
16 | GAGTACGA | 0.0531
17 | GCAGTATA | 0.0811
18 | AGTCCATC | -0.0379
19 | TATCGGAA | 0.431
20 | CTAGCGAC | -0.126
21 | AATCCCAG | -0.0543
22 | GTGCCCTA | -0.202
23 | GTCGCTTA | -0.00637
24 | GATTGCCC | -0.0825
25 | CGTTTGTC | -0.111

Row | Sequence | PBM E-score
26 | ACTGCTTC | -0.0772
27 | CTAACCAC | -0.0981
28 | AGGACTAG | -0.29
29 | GATGCACC | 0.0232
30 | AGACTGAT | -0.14
31 | GGTCGGTA | 0.223
32 | CGGGGGCC | 0.152
33 | CACTCTGC | -0.179
34 | GTCCGTGA | -0.0305
35 | CGTCAAGC | 0.00318
36 | CAAGAAGG | -0.229
37 | AATGTTCA | 0.0228
38 | GTGGACCA | -0.0658
39 | GCGGGGAA | 0.124
40 | GAAGGCCC | 0.0595
41 | CCTTCCCG | 0.301
42 | CTGCCAAG | -0.234
43 | AGAAAAAG | 0.103
44 | AGTCAGGA | -0.144
45 | TCGAGAAA | -0.141
46 | AGGGAAGC | -0.102
47 | TTCAAGAA | 0.146
48 | CCGAATGC | 0.332
49 | TCCTAGCA | -0.0956
50 | GGTTGTAA | -0.063

Row | Sequence | PBM E-score
51 | CGGGCCGA | 0.435
52 | CTACGTGC | -0.23
53 | ATTTTATG | 0.133
54 | CCAGTACG | -0.121
55 | AGACATAA | 0.064
56 | GCAGAAGA | -0.126
57 | GTCTTTAA | -0.107
58 | CCGTATAG | -0.0927
59 | ACATAGCA | -0.15
60 | TAGGAATA | -0.041
61 | ACTGCTCG | 0.11
62 | CTATTTAA | 0.133
63 | AGTCTGAG | -0.237
64 | ATCGCGGG | 0.123
65 | AGTTAAGG | -0.231
66 | GGATGGAA | 0.184
67 | AATGGCCT | -0.083
68 | ATCAGCAG | -0.167
69 | CACTGGAG | -0.343
70 | AGGAGCCT | -0.282
71 | ACAGCGTC | -0.00871
72 | GCTTGGGA | -0.195
73 | ACATCCGG | 0.447
74 | CGGACGCC | 0.191
75 | ACACTCCC | 0.0452

Row | Sequence | PBM E-score
76 | CATTTTCA | 0.035
77 | CAGGAATA | -0.15
78 | GGTCCGTA | 0.151
79 | TTCCGAAA | 0.468
80 | CCAAGTTA | -0.175
81 | ATTTAATC | 0.144
82 | TAAGTACA | -0.0911
83 | GGGTCCAA | 0.136
84 | GGAATAAA | 0.23
85 | CGGACCTA | 0.162
86 | ATCATAAA | -0.088
87 | AAATGCCC | -0.122
88 | ACCTTCCG | 0.4
89 | ACGATTTG | -0.231
90 | CTATTAGC | -0.0309
91 | AACTGGGT | 0.0216
92 | CTGGCTTA | -0.0919
93 | GGTTCGCA | 0.0434
94 | AATTTTAA | -0.00885
95 | GCGGTGCA | -0.283
96 | ATAGCCAA | 0.0207
97 | AATGAGTA | 0.102
98 | ATTAAATG | 0.208
99 | CTGTACCC | 0.207
100 | GGTAAAGA | 0.163

Row | Sequence | PBM E-score
101 | CGTCTGAA | -0.221
102 | ACAGCACG | 0.0954
103 | CGCGTCGA | 0.0608
104 | AAAGGCAC | 0.0606
105 | ACGTACGT | -0.465
106 | ACTACTCA | -0.203
107 | CGGCCTAG | -0.0479
108 | CTAAAACC | 0.046
109 | ACCGAGCG | 0.38
110 | ATCATTTC | 0.135
111 | ATACAACG | -0.0297
112 | AGTACAAG | -0.134
113 | AACACCAA | -0.25
114 | ATAGACTC | -0.233
115 | CAACCTTA | -0.149
116 | CTTAATTA | -0.157
117 | CAGACTAC | -0.157
118 | CAAGCCAA | -0.0961
119 | GAGTAGCA | 0.0461
120 | ACATACGA | -0.208
121 | ACATCGTA | 0.0349
122 | AGTACTGG | -0.198
123 | TCGTTCCA | -0.124
124 | ATGTTTGC | -0.107
125 | ATTAAAGA | -0.135

Row | Sequence | PBM E-score
126 | GTGATGGA | -0.00596
127 | TCCGTGCA | 0.208
128 | AGGCCTGG | -0.235
129 | ACACAGCG | -0.099
130 | TAGTCCAA | -0.0883
131 | CGTTCCAC | -0.00385
132 | ATCCATTC | 0.0957
133 | AAAGCGAA | -0.114
134 | CATTGGGG | -0.216
135 | CAGGGTTC | -0.0742
136 | AGTCTAGG | -0.209
137 | AGGGGCAA | -0.0863
138 | AAGTGATG | 0.039
139 | AGTGTTGA | 0.0066
140 | GTAAGACA | -0.166
141 | TATTTAAA | 0.0539
142 | AGTTCCAA | 0.012
143 | AATTGCAC | -0.0455
144 | CGTACTGC | -0.165
145 | GGTATTAC | 0.168
146 | GGGACCGA | 0.265
147 | AAACAAGG | -0.0788
148 | AATACCCA | -0.00809
149 | AACTCGTC | -0.217
150 | ACTTCTCG | 0.116

Row | Sequence | PBM E-score
151 | AAGACTGT | -0.195
152 | GGATTCGA | -0.0152
153 | AAGTTGAG | -0.0828
154 | CAGGTCGA | -0.162
155 | ACGAAACC | -0.0179
156 | GCACCGAA | 0.241
157 | AATTCGAG | -0.242
158 | AGAAAAAA | 0.082
159 | ATCCTTGG | 0.0257
160 | CCATTTAA | -0.147
161 | CACTCAGC | -0.00258
162 | CAGGGGGC | -0.159
163 | AGCGGTAG | -0.176
164 | GCCCGCGA | 0.0176
165 | AAAATCGG | 0.265
166 | ACCTGTAT | -0.202
167 | GTCCTGGA | -0.228
168 | CCGCGTTC | 0.28
169 | GACGATGA | -0.043
170 | CGCGATGC | -0.0772
171 | CATATCGG | 0.258
172 | AGTTCCCA | -0.0388
